Over roughly 33,000 sequences, “E-score (-0.5 to 0.5)” has its median near -0.043; the highest 2% begin near 0.37. This is one part of the list.
biological target: T1, Upc2 (UniProt Q12151); assay: PBM E-score (8-mer binding enrichment) (E-score (-0.5 to 0.5)); higher = stronger / more preferred TF binding; most listed sequences are background and not binding sites; details: protein concentration: 200 nM; construct: GST-full length
T1 sequence: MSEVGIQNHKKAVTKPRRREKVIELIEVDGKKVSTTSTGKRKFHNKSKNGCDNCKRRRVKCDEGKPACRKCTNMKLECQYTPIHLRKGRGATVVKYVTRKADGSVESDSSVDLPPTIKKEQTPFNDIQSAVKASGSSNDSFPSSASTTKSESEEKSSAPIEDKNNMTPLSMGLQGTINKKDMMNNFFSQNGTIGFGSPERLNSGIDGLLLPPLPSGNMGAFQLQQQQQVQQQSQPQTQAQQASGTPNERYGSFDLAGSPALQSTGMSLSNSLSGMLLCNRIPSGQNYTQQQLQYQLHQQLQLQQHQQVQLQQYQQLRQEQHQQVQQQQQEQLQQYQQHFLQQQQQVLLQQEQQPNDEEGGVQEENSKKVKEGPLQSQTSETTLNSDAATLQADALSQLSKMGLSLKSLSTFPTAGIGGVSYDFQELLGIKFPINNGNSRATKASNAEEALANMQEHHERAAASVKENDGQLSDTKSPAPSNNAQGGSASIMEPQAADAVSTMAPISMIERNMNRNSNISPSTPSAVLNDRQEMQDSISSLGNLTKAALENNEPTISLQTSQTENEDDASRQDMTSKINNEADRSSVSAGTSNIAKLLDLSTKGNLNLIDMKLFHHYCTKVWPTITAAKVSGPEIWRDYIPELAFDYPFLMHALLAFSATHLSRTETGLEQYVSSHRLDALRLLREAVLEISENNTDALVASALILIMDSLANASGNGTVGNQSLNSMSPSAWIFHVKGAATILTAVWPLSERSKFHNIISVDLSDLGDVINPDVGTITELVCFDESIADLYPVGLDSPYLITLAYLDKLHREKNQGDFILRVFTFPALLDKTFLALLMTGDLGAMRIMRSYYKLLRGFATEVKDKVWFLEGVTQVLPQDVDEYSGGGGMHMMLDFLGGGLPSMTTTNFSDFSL
How it was run: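 The E-score, a modified Wilcoxon-Mann-Whitney statistic, was computed by the Universal PBM Analysis Suite for every ungapped eight-base word pooled with its reverse complement. Scans behind it were normalised with masliner after bound GST-tagged yeast transcription factors were detected with fluorescent anti-GST. The proteins, at about 100-200 nM, had been applied to universal all-10-mer Agilent arrays made double-stranded by primer extension.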

Sequence	PBM E-score
AAACTTAG	-0.176
ATCTGCCC	-0.0503
TCGATACA	0.0336
CATAGATA	-0.184
TTCGCGAA	0.32
CGGAAAGC	-0.0301
AAGTAAGT	-0.0171
AACGGCAG	0.222
ACTTATAC	0.362
ATTGTGTC	-0.0367
CAATTCTC	-0.219
GATCTCGC	0.15
CTGCCGCC	-0.25
GTTGCCTA	-0.104
CAAGTTGA	0.00614
GACCATCA	-0.0233
AAAGTTAA	-0.0129
TACTATGA	0.0123
AGTCGGAC	0.0361
ATACCGCG	0.0301
ATTTATTG	-0.157
ATAGAAAG	-0.0817
GTTGGACA	-0.123
GAGCGCTC	0.0839
GCTGGGTA	-0.143

Sequence	PBM E-score
AACAGTAT	0.21
ACTTATGG	-0.159
CCATTGAG	-0.13
AACTTCTC	0.0927
CCGATTTC	-0.178
CCCCGCCC	0.138
ATACCAAA	-0.095
ATGCACTC	-0.0309
ACAGATAG	-0.144
ATTTCGTA	0.431
GGAGTTTA	-0.0511
AACGTTCC	0.152
CTTGAGAA	-0.148
AACGAGTG	0.414
TAACAGGA	0.0963
ATACTCCG	-0.0259
GCCGATAC	0.114
CGAAATGC	0.14
CACGCATC	0.179
GCTAGTGA	-0.115
CCGGTTAG	0.0696
CGGCGCAG	0.014
ACCCTCAT	-0.103
AGTACCAC	-0.0837
CTCCAAGA	-0.214

Sequence	PBM E-score
CTGGAGTC	-0.104
CTACCGAA	-0.0797
CGCCTAAC	0.0674
CAACAATA	-0.0351
ACCCCCCT	-0.151
TACTGTCA	-0.0273
AGGATTCA	-0.176
AATTGCGC	0.0799
CATGGTAA	0.0436
ACGTATAC	0.445
CTTTCCAC	-0.0832
GGCTAGTA	-0.0657
AGTTAGGA	-0.198
ACTTCCCG	0.0138
ACCCTCGT	0.419
CGTGGGCA	-0.329
CGTATCGA	0.317
AACATTGA	-0.00731
CCACTCGA	-0.013
CGTGAGAA	-0.0165
CGCGGGAC	-0.105
CATGGCAC	-0.112
CACTTCCG	-0.327
AGGAATGA	-0.148
GTGCGACA	0.106

Sequence	PBM E-score
AGTTAGTC	-0.117
ACGCAAGT	-0.0711
AAAGGCGC	0.123
TCAAGTCA	-0.214
AACCAGGC	-0.0684
TCGTGAGA	0.0253
CTCGCACC	0.131
ACGTTTTC	0.164
GTCTGAAC	0.141
AAGAATTC	-0.0268
AAGGCGAA	-0.1
ATTAAAAA	0.0273
AGGCAACC	-0.271
GTCCGGCA	-0.229
GTCACGGA	-0.283
CAGATTGG	-0.303
ATATGAAC	0.234
CCAGTGAC	-0.217
ACCGGCAT	-0.0195
CACAAATG	-0.0189
ACTAGACG	0.129
GTACGGCA	0.364
GCGGACCC	-0.0237
CAACGGAA	0.0204
AAGAAGTA	0.0759

Sequence	PBM E-score
AAGATACA	0.0107
ATATGGGG	-0.188
AGAGAGCG	-0.138
CACCAAGC	0.0027
ATGGGGGC	-0.205
CAGTCCCC	-0.306
GGTCTGTA	0.0803
TGGACCAA	-0.238
ATAGACAC	0.0447
CCAACCGG	-0.0322
AGTTCCTC	-0.161
AAATCAGC	-0.0865
GAACAATC	-0.0705
CATGCAGG	-0.188
CTTCGCCC	-0.235
AGTGATGC	-0.0793
GTTGAATA	0.17
AGATACAC	0.0793
ACCGGGCT	0.0294
GCCGATCA	-0.0833
GATTCGAA	0.0467
ACTAATTA	0.00126
CACCATCC	-0.32
CATCACAC	0.00102
AGATTGCT	-0.117

Sequence	PBM E-score
CAACGCAA	-0.0507
GGCGAACA	-0.14
ACATGGGG	-0.258
CCCGGCGG	-0.224
CGTCGTCC	-0.154
GCTAACAC	-0.0792
AAATGAGC	-0.0772
ATATCCAC	-0.0735
CGTACCTC	0.361
ATTCGGCG	-0.116
AGGCGTAT	0.244
GGGTATGA	0.0776
CCAAAAGA	0.0834
AGGCGAGC	-0.133
CACCGACG	0.0873
GTTAGCAA	-0.0503
CCCATAAG	-0.141
AGCCTCCT	-0.19
ACCCTAGG	-0.151
AATGGCTA	-0.0196
ACGCCTCT	-0.0777
CGCCGATA	-0.0179
ACCGAAGC	0.0937
ATCGCGCG	0.0846
ACGAAGGC	0.308

Sequence	PBM E-score
CGAGCCTC	0.192
CCGCAGGA	-0.28
ACAGAAGT	-0.171
ATCGATCA	0.0619
TCACCTGA	-0.284
GCCAGCCC	-0.202
CCGTAAAC	0.396
CCATGGAC	-0.201
AGGCGACC	-0.0928
GATCATCA	-0.084
CTTGACAA	-0.052
GAGGCGAA	-0.145
CGAGGGTC	0.0856
ATGTGGGA	-0.173
GCTGTACA	-0.0266
AATTTGCG	0.0522
GAACATTC	-0.124
CACTGGAA	-0.0126
GACAAGCA	-0.159
ATTCTTTC	-0.00883
GAGCGAGA	0.28
AAGCTCGT	0.359

Reference: the supplement of paper PMC3334620
